Where “and” joins values, the source holds several entries; their conditions need not be identical. Equal values may be shown once. Out of some 340,000 compounds screened, about 12,000 (3.5%) were called active. Inconclusive results, whose numbers are uncertain, are shown with a selection of clear calls. The call rests on the fitted dose curve; in most records, active means well fitted inhibition curve with a large enough effect; inconclusive means small, poorly fitted or top-dose-only effect, or another doubt; inactive means no such curve, though single readings can be large or run the other way. Potencies of inconclusive entries are left out as doubtful fits.
test: qHTS Assay for Inhibitors of Hepatitis C Virus (HCV); conditions: Huh7.5.1 HCVcc-Cre (HCVcc is cell-culture hepatitis C virus) infection, luciferase reporter, 44 h; series mostly up to 41.8 µM
Method in brief: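 1,000 cells/well; 4 h culture; + compound; + HCVcc-Cre (~0.5 moi); 44 h; luciferase substrate, RT 15 min; read 15 sec.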
Potency means the concentration at half of the fitted maximal effect; tags describe the fitted curve by direction and shape.

Structure (SMILES) | Potency
COc1ccc(N/N=C/c2c(C(=O)O)ccc3ccccc23)cc1 | inconclusive [inhibitor, full curve]
O=C(OCCN1CCOCC1)c1cccc(F)c1 | inactive
Cc1nnc2n(-c3ccccc3)c(=O)c3c4c(sc3n12)CC(C)CC4 (stereo not drawn) | inconclusive [inhibitor, single point]
CC1CN(C)C(C)c2c1oc1ccc([N+](=O)[O-])cc21 (stereo not drawn) | inconclusive [inhibitor, full curve]
c1ccc(CN2CCC(N3CCC(N4CCCCCC4)CC3)CC2)cc1 | inconclusive [inhibitor, partial curve, poor fit]
O=C(Nc1cccc(-c2nc3ccccc3s2)c1)c1cccs1 | inconclusive [inhibitor, single point]
OC(CNC1CCCc2ccccc21)COc1c(Cl)cccc1Cl (stereo not drawn) | inconclusive [inhibitor, partial curve]
Cc1noc(C)c1COc1ccc(C(=O)Nc2nnc(CC(C)C)s2)cc1 | inconclusive [inhibitor, partial curve]
CN(CC(=O)NCC(c1ccccc1)N1CCCC1)S(=O)(=O)c1ccc(Cl)cc1 (stereo not drawn) | inconclusive [inhibitor, single point]
COc1ccccc1S(=O)(=O)Cc1ccc(C(=O)N2CCN(c3cccc(Cl)c3)CC2)o1 | active: 12.6 µM
COc1ccc(/C=C/C(=O)c2ccc(OC)cc2OC)cc1 | inconclusive [inhibitor, partial curve]
OCC1(Cc2ccccc2)CCN(Cc2cnc(-c3ccc(Cl)cc3)nc2)CC1 | active: 10 µM
Cc1cccc(NC(=O)C2CCN(S(=O)(=O)c3cccc4cccnc34)CC2)n1 | inconclusive [inhibitor, partial curve]
Cc1csc(NC(=O)c2cccnc2Cl)n1 | inactive
Cc1ccc2c(c1)sc[n+]2Cc1ccccc1 | active: 10 µM
Cc1cc(C)n(-c2ccc(C(=O)N3CCN(S(=O)(=O)c4ccc(C(C)C)cc4)CC3)cc2)n1 | inconclusive [inhibitor, partial curve]
CC(C)NCc1nnc(-c2ccc(Cl)cc2)o1 | inactive
CC(=O)CSc1nc2ccc(Nc3nc(N4CCOCC4)nc(N4CCOCC4)n3)cc2s1 | active: 14.1 µM and active: 31.6 µM
CCCCn1c(SCC(=O)NCc2ccc(OC)c(C(=O)O)c2)nc2cc(S(N)(=O)=O)ccc21 | inactive
c1ccc(CNc2ncnc3c2cnn3-c2ccccc2)cc1 | inconclusive [inhibitor, full curve]
CCOC(=O)N1CCN(Cc2nc3cc(NC(=O)c4cccs4)ccc3n2CC)CC1 | inconclusive [inhibitor, partial curve]
Cc1cccc(OCc2nnc(N)s2)c1C | inactive

Structure (SMILES) | Potency
N#C/C(=C1/C(=O)Nc2ccc(Br)cc21)c1ccccn1 | inconclusive [inhibitor, full curve, poor fit]
COc1cc(-c2csc(CCn3nc(C)cc3C)n2)cc(OC)c1OC | inconclusive [inhibitor, single point]
CC(NC(=O)c1cccc(S(=O)(=O)N2CCN(Cc3ccccc3)CC2)c1)c1ccc(Br)cc1 (stereo not drawn) | inconclusive [inhibitor, single point]
Cc1cccc(OCC(O)Cn2c(=N)n(Cc3ccccc3)c3ccccc32)c1 (stereo not drawn) | inconclusive [inhibitor, partial curve]
CC(=O)c1ccc(S(=O)(=O)N2CCN(C(=O)c3ccc(-n4nc(C)c(Cl)c4C)cc3)CC2)cc1 | active: 6.31 µM
COc1ccc(N2CCN(CC(=O)Nc3c(C)cc(C)cc3C)CC2)cc1 | inconclusive [inhibitor, single point]
CCc1nc(N2CCNCC2)c(C#N)c2c1CSC(C)(C)C2 | inconclusive [inhibitor, single point]
CCc1ccc2[nH]c(=O)c(CN(CCCN3CCOCC3)C(=O)Nc3cccc(Cl)c3)cc2c1 | active: 10 µM
CCc1nc(OCc2ccco2)c2sc3nc4c(cc3c2n1)COC(C)(C)C4 | inconclusive [inhibitor, single point]
Cc1ccccc1CN1C(=O)CS/C1=N/N=C/c1ccco1 | inconclusive [inhibitor, full curve]
O=C(NC1CCCCC1)c1ccc(CS(=O)(=O)c2ccc(Cl)cc2)o1 | inconclusive [inhibitor, single point]
COc1ccc(C(=O)N2CCCC2(C#N)c2ccccc2)cc1[N+](=O)[O-] (stereo not drawn) | active: 14.1 µM
Cc1ccc(N2C(=O)N3[C@H](c4ccc(Br)cc4)[C@@H]4C(=O)N(C(C)(C)C)C(=O)[C@@H]4[C@]3(C)C2=O)cc1 | inconclusive [inhibitor, single point]
Cc1ccc(COC(=O)c2nn(C)c(=O)c3ccccc23)cc1 | active: 10 µM
C=CCn1c(=O)c2ccccc2n2c(SCC(=O)Nc3sc(C)c(CC)c3C(=O)OCC)nnc12 | inconclusive [inhibitor, single point]
COc1ccccc1CCNC(=O)/C(=C/c1cccnc1)NC(=O)c1ccccc1 | inactive
Cn1ncc2c(c(SCc3ccc(Cl)cc3Cl)nn2C)c1=O | inconclusive [inhibitor, partial curve]
O=C(COC(=O)c1cnccn1)N=c1sccn1Cc1ccccc1Cl | inconclusive [inhibitor, single point]
Cc1nnc(SCCC(=O)Nc2nc(-c3ccccc3)ns2)s1 | inconclusive [inhibitor, full curve, poor fit]
Cc1ccc(CNC(=O)c2cc(=O)c3ccc(C)cc3o2)cc1 | inconclusive [inhibitor, single point]
O=C(NN=Cc1cc([N+](=O)[O-])ccc1O)c1cccc2ccccc12 | inconclusive [inhibitor, single point]
